Measurements reported in publication PMC1557994.
No constants are given. Whether binding was seen depends on the method and setting. Some binding calls cover weakened binding; strength is not graded here.

T1: Bcy1, a regulatory subunit of cAMP-dependent protein kinase A (S. cerevisiae) (UniProt P07278)
T1 sequence: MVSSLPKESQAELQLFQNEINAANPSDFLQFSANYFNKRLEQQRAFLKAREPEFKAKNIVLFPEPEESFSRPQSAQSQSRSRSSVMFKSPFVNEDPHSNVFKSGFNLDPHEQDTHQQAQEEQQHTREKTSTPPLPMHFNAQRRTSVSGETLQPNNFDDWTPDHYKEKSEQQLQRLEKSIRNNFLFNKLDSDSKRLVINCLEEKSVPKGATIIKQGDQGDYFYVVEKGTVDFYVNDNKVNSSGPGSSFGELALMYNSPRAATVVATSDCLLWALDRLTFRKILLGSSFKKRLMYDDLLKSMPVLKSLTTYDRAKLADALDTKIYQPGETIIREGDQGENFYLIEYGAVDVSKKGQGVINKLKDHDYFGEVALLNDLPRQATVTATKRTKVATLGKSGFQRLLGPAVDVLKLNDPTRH

T2: Ypt53 (S. cerevisiae) (UniProt P36019)
T2 sequence: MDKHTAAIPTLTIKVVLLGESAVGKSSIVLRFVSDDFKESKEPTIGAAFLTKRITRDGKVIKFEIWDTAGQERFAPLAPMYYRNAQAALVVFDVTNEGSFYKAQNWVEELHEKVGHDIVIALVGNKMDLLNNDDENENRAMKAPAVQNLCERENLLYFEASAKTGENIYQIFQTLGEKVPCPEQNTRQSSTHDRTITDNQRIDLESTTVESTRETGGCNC

T3: Prp2, a DEAD-box RNA-dependent ATPase (S. cerevisiae) (UniProt P20095)
T3 sequence: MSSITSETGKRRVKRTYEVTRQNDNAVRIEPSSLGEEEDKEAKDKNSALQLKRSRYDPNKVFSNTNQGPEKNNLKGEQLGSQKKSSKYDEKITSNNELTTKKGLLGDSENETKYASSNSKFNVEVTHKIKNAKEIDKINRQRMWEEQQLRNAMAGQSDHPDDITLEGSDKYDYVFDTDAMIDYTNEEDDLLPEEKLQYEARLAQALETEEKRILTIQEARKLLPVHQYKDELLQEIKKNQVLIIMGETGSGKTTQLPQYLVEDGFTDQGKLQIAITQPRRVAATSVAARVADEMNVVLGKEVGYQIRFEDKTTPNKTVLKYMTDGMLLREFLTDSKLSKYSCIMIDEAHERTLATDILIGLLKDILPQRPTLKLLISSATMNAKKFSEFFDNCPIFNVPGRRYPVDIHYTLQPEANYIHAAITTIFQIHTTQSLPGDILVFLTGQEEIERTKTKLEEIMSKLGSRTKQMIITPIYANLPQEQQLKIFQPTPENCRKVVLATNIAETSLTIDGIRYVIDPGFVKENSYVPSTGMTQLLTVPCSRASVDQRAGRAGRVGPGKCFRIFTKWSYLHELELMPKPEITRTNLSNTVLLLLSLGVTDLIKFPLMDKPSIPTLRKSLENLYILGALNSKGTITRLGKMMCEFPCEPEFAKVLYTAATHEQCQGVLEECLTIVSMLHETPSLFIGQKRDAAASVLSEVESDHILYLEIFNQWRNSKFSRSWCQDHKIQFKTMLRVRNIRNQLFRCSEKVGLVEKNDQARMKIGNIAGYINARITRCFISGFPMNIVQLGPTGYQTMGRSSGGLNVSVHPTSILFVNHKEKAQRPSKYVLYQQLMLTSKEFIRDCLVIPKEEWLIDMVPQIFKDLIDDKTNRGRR

T4: Wwm1 (protein on the microarrays) (S. cerevisiae) (UniProt P43582)
T4 sequence: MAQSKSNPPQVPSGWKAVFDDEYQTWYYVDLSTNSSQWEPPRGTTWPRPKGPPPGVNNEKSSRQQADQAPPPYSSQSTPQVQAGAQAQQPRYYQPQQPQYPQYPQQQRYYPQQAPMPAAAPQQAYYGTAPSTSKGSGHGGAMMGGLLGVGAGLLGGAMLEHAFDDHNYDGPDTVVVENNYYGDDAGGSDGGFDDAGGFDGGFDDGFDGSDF

T5: Pai3, the cytoplasmic inhibitor of yeast saccharopepsin (S. cerevisiae) (UniProt P01094)
T5 sequence: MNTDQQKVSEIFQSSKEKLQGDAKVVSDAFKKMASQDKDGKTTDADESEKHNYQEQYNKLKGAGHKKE


How the values were obtained:
Experiment in all cases: peptide or protein array; 4,088 GST-tagged yeast proteins printed in duplicate on nitrocellulose-coated glass slides; probed with 50 uM biotinylated WW domain fusion protein in PBS on ice (cold room, 4 C) for 90 minutes; detected with Alexa Fluor 647-streptavidin; positive: counts more than three standard deviations above the trimmed mean of the block, in duplicate on two arrays; both purified
[1] = target: T1, Bcy1, a regulatory subunit of cAMP-dependent protein kinase A (S. cerevisiae)
Ypt53 (S. cerevisiae) = target: T2, Ypt53 (S. cerevisiae)
[2] = target: T3, Prp2, a DEAD-box RNA-dependent ATPase (S. cerevisiae)
[3] = target: T4, Wwm1 (protein on the microarrays) (S. cerevisiae)
[4] = target: T5, Pai3, the cytoplasmic inhibitor of yeast saccharopepsin (S. cerevisiae)

| binding [1] | binding (Ypt53 (S. cerevisiae)) | binding [2] | binding [3] | binding [4] | Binder |
| --- | --- | --- | --- | --- | --- |
| binds | binds | binds | – | – | TGLPTPWTVRYSKSKKREYFFNPETKHSQWEEPEG (domain or fragment, UniProt P22696 9-43, biotin (NHS-LC-LC-biotin, amine-reactive)) [WW domain from Ess1] |
| – | – | – | no binding (tested: 50 μM) | binds | PQVPSGWKAVFDDEYQTWYYVDLSTNSSQWEPPRG (domain or fragment, UniProt P43582 9-43, biotin (NHS-LC-LC-biotin, amine-reactive)) [Wwm1 WW domain probe] |
